# The list shows a part of the results. At the low end of the ranking the order means little.
# Tested on: T1, GST-NbGlk1(82-244)
# T1 sequence: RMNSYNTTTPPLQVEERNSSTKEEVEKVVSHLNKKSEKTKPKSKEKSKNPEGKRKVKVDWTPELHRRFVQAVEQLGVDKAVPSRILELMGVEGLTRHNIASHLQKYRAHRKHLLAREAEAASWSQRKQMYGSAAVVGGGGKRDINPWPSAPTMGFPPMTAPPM
# Assay: protein-binding microarray;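 note: rank-based score ranging −0.5 to +0.5 with E above 0.45 taken as significant binding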
# Settings: NbGlk1 is a Golden2-like transcription factor of Nicotiana benthamiana; high values mean tight binding; most listed sequences are background and not binding sites; double strand, one strand shown
row,Sequence,binding signal [E-score]
1,AAGGCCCT,-0.361
2,ATGACTCA,-0.0643
3,AGGTTAAC,-0.0532
4,ACTTAGCC,-0.181
5,CACTTAAA,-0.112
6,AGCTGCGG,-0.244
7,CAAGCCGA,-0.152
8,ACGCACAC,-0.0526
9,ACGTTCTA,0.0763
10,ACGTGTCT,-0.0184
11,AACCCAAA,-0.0522
12,CACACCGG,-0.133
13,AACCCGCG,-0.022
14,AACCAGCG,-0.0998
15,AGATATGC,0.415
16,AAAGGCGC,-0.132
17,ACGCTCTG,-0.128
18,AACGTAGT,-0.0218
19,ATATGTGA,0.164
20,ATCTAATA,0.26
21,ACGTTAGA,0.0229
22,AAGCTGTG,-0.139
23,AAGTACTA,0.0583
24,ATTTAGGA,0.0838
25,AATCTGCG,0.444

row,Sequence,binding signal [E-score]
1,AGCGAAAT,0.343
2,ATAGTAGA,0.201
3,AAGCCGCA,-0.14
4,AAGTGCAT,-0.0915
5,CACAGCGG,-0.0216
6,AACGCAGC,-0.0481
7,AATAAGAA,0.172
8,ACGTCAAC,-0.103
9,AGCGAACG,-0.187
10,ATAGGGTG,-0.047
11,ATAGCGGG,-0.162
12,ATATAACG,0.166
13,ATGAAACG,0.11
14,AGAAGGTG,-0.0433
15,AATCAACG,0.247
16,CAATACGC,-0.0773
17,ACGCATGC,-0.146
18,AATAAAAT,0.285
19,ACGCGAAA,0.104
20,AGGGGGAA,0.0279
21,AGAGGAGC,-0.278
22,ATGACGAA,-0.0902
23,CACCGCAG,-0.0367
24,ATGTAGGG,-0.0653
25,AGAAAGAA,0.0869

row,Sequence,binding signal [E-score]
1,ACGATACC,0.0532
2,ACGCAGAC,-0.0686
3,AAGCCATT,-0.154
4,ATTAAGAC,-0.0138
5,ACTGTCTA,-0.0303
6,AGCACATA,0.0373
7,AAGGGCTA,-0.102
8,ATTGGTAG,-0.000102
9,AATTTAGT,0.14
10,ATTCGTAC,0.144
11,ACTCGTCG,-0.172
12,AATATACC,0.14
13,CAACCTCA,-0.0945
14,AACCAGCA,0.0442
15,CACGACTG,-0.101
16,AGAGTGGA,0.0598
17,ACGAGTCC,-0.249
18,AGGGCGGC,-0.214
19,ATCAGAAA,0.272
20,ATTAGGTC,-0.0495
21,AGCCGATC,0.0201
22,AGAAAGGC,-0.159
23,AATACTAG,0.0371
24,AGCCAAAA,3.22e-05
25,CAATGCGC,-0.116

row,Sequence,binding signal [E-score]
1,AAGTAGCC,-0.207
2,AGTAACAC,-0.128
3,AGTTGTGC,-0.0958
4,AAAACTTC,-0.0204
5,AAGCGCAG,-0.0537
6,ATGACGCG,-0.133
7,ACCGAAGT,-0.0945
8,ACTTTTTC,0.00712
9,AATGAAAC,0.0492
10,AACCAAGC,-0.0491
11,AAAGGTGG,-0.181
12,AAACCTCG,-0.0195
13,ATTCCTAC,0.176
14,AGTCAGCC,-0.279
15,AGACCCCG,-0.193
16,AGGAATCC,0.422
17,AGGTTGGC,-0.206
18,AGCACTAG,-0.14
19,AACGGTAG,-0.125
20,CACGAGGC,-0.299
21,AACTGTGG,-0.0788
22,ACTACTCC,-0.0786
23,AGACCATG,-0.182
24,CAAGCCAA,-0.138
25,AATATGAT,0.222

row,Sequence,binding signal [E-score]
1,AAATGTCT,-0.0382
2,AATGACTG,-0.0618
3,ATGTGTGG,-0.0679
4,AGGAGACT,-0.3
5,ATGAGCTG,-0.102
6,AAGGAGCT,-0.218
7,ACGGACAT,-0.155
8,ACTTGACA,-0.0266
9,AATGAAGA,0.13
10,AATTCCCC,0.225
11,CAGAGGCA,-0.117
12,AGAGTAGC,-0.169
13,AAGATCTG,0.362
14,CAGCCTAA,-0.148
15,AAAGAATC,0.432
16,AGTCACGC,-0.279
17,ACGTTCCG,-0.0344
18,CAGAGGTC,-0.302
19,AGAGGCTA,-0.143
20,AGCTTTAA,-0.152
21,AAGTCGCT,-0.145
22,AGGACAGG,-0.155
23,CAAAGTGA,0.0633
24,ACATATAG,-0.135
25,AGCGACTG,-0.178

row,Sequence,binding signal [E-score]
1,ATATACCA,0.168
2,ACATGATA,0.198
3,ATCTTGGA,0.257
4,AGTTCTAC,-0.0788
5,AATCTTGA,0.377
6,ATACCGGG,0.0149
7,AACCAACG,-0.0567
8,AGGGGCTA,-0.192
9,ACAGGTTG,-0.102
10,AAGCGGGA,-0.0986
11,ATGCTAAG,0.0345
12,AACGAGTT,-0.0852
13,CAACGCTG,-0.136
14,CACACTAA,-0.0296
15,AACTGATT,0.296
16,AATACCAG,-0.0134
17,ATCGGATC,0.275
18,ATCAATTG,0.1
19,AAATGAAG,0.0114
20,AGCACCAG,-0.267
21,ACTTTGCT,-0.0183
22,AATTCCTG,0.0736
23,ACGGAAAA,0.159
24,AAAGCGGT,0.00106
25,AGGTGTCG,-0.276

row,Sequence,binding signal [E-score]
1,AAAGTGAA,-0.0347
2,CACTCGAG,-0.149
3,AGGGAGAC,-0.261
4,ACCTGGGA,-0.296
5,ACCACGCA,-0.185
6,ATCAGGGC,0.00809
7,ATGGCGAC,-0.202
8,AACCCCGG,-0.287
9,ATTCCCAC,0.332
10,AGACGGCT,-0.292
11,ACAAGACA,-0.151
12,AGTTCCAC,-0.283
13,CACGGGGA,-0.11
14,AACCCCGC,-0.172
15,ATAACTGG,-0.0397
16,CAAACTTG,-0.0833
17,ACTGCTAA,-0.000472
18,AGTAGTTA,0.171
19,ACATGTAG,-0.0749
20,CAAATCTA,0.412
21,AGGCATTC,-0.196
22,AGGGCCCC,-0.222
23,ACGCGATG,0.0544
24,CAAAGGAG,-0.115
25,ACACCGTG,-0.226

row,Sequence,binding signal [E-score]
1,ACGGACCA,-0.24
2,ACACTGAA,0.0195
3,ATACGGCG,0.101
4,AGAGCGGG,-0.171
5,ACCAGACA,-0.191
6,AAGTACTT,0.124
7,AGGAGCTG,-0.18
8,ATTACCAA,0.314
9,AGGACATA,0.00644
10,ACAACTTG,-0.0194
11,ACCAATAG,-0.119
12,CACAACTG,-0.0288
13,AACGGCGA,0.00444
14,AAACATAA,0.143
15,AATTTCCT,0.255
16,AGTAGATA,0.303
17,AAACATCG,0.0606
18,AAATGTAG,0.0195
19,AATCTTAA,0.411
20,AAGAGTCT,-0.287
21,ACGGAACG,-0.157
22,AGCCAGTA,-0.099
23,CACGTTGG,-0.288
24,ATGCCGAC,-0.154
25,ACCTTCCC,-0.216

row,Sequence,binding signal [E-score]
1,ACCGTAGG,-0.0617
2,ATGAGCTC,-0.257
3,AGCAATAT,0.299
4,AATCTTGC,0.348
5,AGCGGTGG,-0.152
6,AGTCATGG,-0.141
7,ACAAGCGA,0.112
8,ACCGTAGC,-0.186
9,AGATTGCC,0.448
10,AGTGGTGA,0.0524
11,AGCTGAAG,-0.193
12,ACACCAGA,0.0913
13,AGTCAAGG,-0.224
14,AGAAAAAC,-0.019
15,ACTTCTGA,0.122
16,ACGGACTC,-0.258
17,AAGGGGCG,-0.223
18,ACCTCGGA,-0.0862
19,ATTACAGG,0.138
20,ACCCATCG,-0.0461
21,AAGGCTGG,-0.24
22,AGAAGTGC,-0.176
23,AGACAACT,-0.174
24,AACACGCG,-0.105
25,ACACAGGA,-0.031

row,Sequence,binding signal [E-score]
1,ACATAAGT,-0.0922
2,AGTGTGTC,-0.0677
3,AGTGCAAG,0.125
4,ACGGCCCT,-0.159
5,AACTTACC,-0.0322
6,AGTCGCTA,-0.0535
7,AAGCAGGG,-0.165
8,AGGCCGCA,-0.259
9,AATCCGTA,0.337
10,AGTTGATA,0.158
11,ACAGGCGC,-0.187
12,AAGTCATA,0.018
13,CAATGTAC,-0.0483
14,ACGGTAAC,-0.0942
15,CAGCGATA,0.0548
16,CACAGTGG,-0.166
17,AGCGGGTG,-0.127
18,ACAGCGAC,-0.185
19,ATTGATTG,0.133
20,AATAAAAA,0.247
21,ACTCGACT,-0.0799
22,AACTAGTG,-0.164
23,AATGTTGT,0.0611
24,ACCAGTCA,-0.27
25,AAGCCCAT,-0.128

row,Sequence,binding signal [E-score]
1,ATAGAAGG,-0.161
2,CACACACA,0.0162
3,ATGGAAAA,0.0125
4,ACTCATCA,-0.0329
5,AGGCCGCG,-0.187
6,AGGGGTCC,-0.322
7,AAACGTCA,-0.00469
8,AGATCACC,0.157
9,ATGCAGTC,-0.25
10,ATCAGTAA,0.214
11,AAGCTCGA,-0.203
12,ACTAGCCT,-0.175
13,ATTACAGA,0.295
14,AAGTTGTG,-0.0923
15,AAGTCGCC,-0.285
16,ATACGTCC,0.0273
17,AACAATTC,0.147
18,ACATCGGG,-0.0452
19,AACGAACG,-0.0266
20,ACATAACA,-0.0944
21,ACTCACTG,-0.185
22,AACGTTCC,-0.0248
23,AGTATCTC,0.235
24,ACAATATC,0.387
25,AGATCACT,0.0722

row,Sequence,binding signal [E-score]
1,ACTGTGAA,0.0939
2,CAATCGGA,0.227
3,AAGGACCG,-0.247
4,AAGACCAC,-0.235
5,ACGACCAC,-0.236
6,ATCTGGCA,0.162
7,AATAGGAG,-0.0605
8,AAACAGAA,0.0793
9,AAGAAAGG,-0.109
10,AAGCCTAC,-0.139
11,AGCATAAC,-0.107
12,AAGCTAAC,-0.32
13,ACTAAAAG,0.0652
14,AAGAAGCG,-0.068
15,CAACAACG,-0.00126
16,AAAAAACG,0.0946
17,ATAGATTA,0.339
18,AGCACACA,-0.127
19,ACGCTGAA,0.00381
20,ATCAACAG,0.104
21,AACTGCTT,-0.00326
22,ACGCGAGT,-0.192
23,ACCCTAGG,0.0265
24,CACTGCAA,0.121
25,AATCCAAA,0.413

row,Sequence,binding signal [E-score]
1,AACATGCT,-0.232
2,ACTGTGGA,-0.141
3,ATTGTTCC,0.122
4,CACTCGCC,-0.27
5,AGGTCCCA,-0.257
6,CAAACAAG,0.0777
7,ACGAAAAA,0.173
8,AACTTGAG,-0.0443
9,AATAGCAA,0.171
10,ACCTGTAC,-0.133
11,AGACTTAG,-0.156
12,AGGGTGGG,-0.118
13,ATTGATGC,-0.0268
14,AATGATTC,0.22
15,ACAGGATC,0.294
16,ACCGAAAG,-0.0579
17,ATCACAGG,0.0355
18,CACGAACA,-0.155
19,AACGCGAT,0.341
20,AGTGCACT,0.0166
21,CAAGCCTG,-0.192
22,ATGGCATG,-0.15
23,AATAACCC,-0.0131
24,ATATTCCA,0.326
25,CAACTGGC,-0.19

row,Sequence,binding signal [E-score]
1,CAAGACTG,-0.0608
2,AGCAGGTC,-0.268
3,ACGACTGA,-0.0474
4,CACGGCCC,-0.214
5,AAGCGCTG,-0.203
6,ATTAATAC,0.124
7,AATAAGCA,0.0311
8,ATGATAAC,0.00912
9,AAGGAAAG,-0.312
10,CACGCCGG,-0.196
11,ACAGCCGA,-0.0829
12,AGATGATC,0.115
13,ATTCATTC,0.0982
14,AGGAGTAA,-0.0375
15,ATTGCGAC,0.346
16,AAGTACCC,-0.182
17,ATGAATAC,0.0592
18,AGCACCGC,-0.137
19,AACAGCCT,-0.237
